About 14,000 (4.5%) of roughly 310,000 compounds showed an effect of 50% or more. The effect is printed as a negative number. This is one part of the list.
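Note: peak tail current of the secondary pulse compared with the same well before compound.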

In the test the target is human ether-à-go-go-related gene (hERG) potassium channel (human, UniProt Q12809). Briefly: primary screen, population patch clamp on CHO cells stably expressing hERG.
Chain of human ether-à-go-go-related gene (hERG) potassium channel (Q12809 whole entry, looked up): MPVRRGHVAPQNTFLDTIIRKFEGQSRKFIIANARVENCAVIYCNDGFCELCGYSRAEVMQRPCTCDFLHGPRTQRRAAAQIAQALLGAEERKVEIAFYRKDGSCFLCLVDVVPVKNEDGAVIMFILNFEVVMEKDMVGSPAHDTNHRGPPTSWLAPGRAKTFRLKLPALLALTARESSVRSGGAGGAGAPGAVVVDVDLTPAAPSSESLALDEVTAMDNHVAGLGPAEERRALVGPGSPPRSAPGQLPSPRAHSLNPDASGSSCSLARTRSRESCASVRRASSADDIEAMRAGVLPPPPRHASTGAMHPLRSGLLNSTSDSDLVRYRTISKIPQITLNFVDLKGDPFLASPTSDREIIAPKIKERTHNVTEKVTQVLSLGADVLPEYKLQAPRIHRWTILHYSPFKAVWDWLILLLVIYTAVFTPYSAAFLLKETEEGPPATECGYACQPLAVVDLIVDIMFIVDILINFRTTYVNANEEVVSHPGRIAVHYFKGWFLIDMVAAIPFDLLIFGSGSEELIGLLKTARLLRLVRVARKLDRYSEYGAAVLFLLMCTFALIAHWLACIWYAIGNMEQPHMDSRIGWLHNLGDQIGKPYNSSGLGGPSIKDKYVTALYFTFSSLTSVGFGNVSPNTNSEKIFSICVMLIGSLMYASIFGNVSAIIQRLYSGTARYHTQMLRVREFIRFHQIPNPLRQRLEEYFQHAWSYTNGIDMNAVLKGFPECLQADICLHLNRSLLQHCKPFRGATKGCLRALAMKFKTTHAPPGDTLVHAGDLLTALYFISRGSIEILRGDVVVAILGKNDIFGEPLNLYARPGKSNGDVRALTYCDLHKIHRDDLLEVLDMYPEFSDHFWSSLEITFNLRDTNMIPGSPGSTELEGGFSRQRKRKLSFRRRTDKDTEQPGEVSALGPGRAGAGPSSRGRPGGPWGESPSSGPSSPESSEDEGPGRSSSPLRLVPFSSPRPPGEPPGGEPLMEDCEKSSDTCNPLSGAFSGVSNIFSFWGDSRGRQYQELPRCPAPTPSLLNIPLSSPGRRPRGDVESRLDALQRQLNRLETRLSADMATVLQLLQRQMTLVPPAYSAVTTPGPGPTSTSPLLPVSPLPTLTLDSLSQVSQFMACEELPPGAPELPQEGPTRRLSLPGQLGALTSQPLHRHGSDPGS
On to `O=C(Cc1ccccc1)N1CCC2(CC1)NCCc1[nH]cnc12`, for which the “hERG current change (%, negative = inhibition) at 10uM” value is listed as 38.2%.
On to `CC(C)C(NC(=O)c1ccc(C(C)(C)C)cc1)C(=O)NC1=NCCS1` (centres unmarked), for which the “hERG current change (%, negative = inhibition) at 10uM” value is reported as -6.13%.
Next, `Cc1ccccc1NC(=O)c1ccc2ccccc2c1`: -8.12%.
Turning to `COc1ccc(CCNC(=O)C2CCCN2C(=O)Nc2ccc(Cl)cc2)cc1OC` (centres unmarked), the “hERG current change (%, negative = inhibition) at 10uM” value is -8.85%.
Next, `CC(=O)NC(Cc1ccccc1C)C(=O)NC1CCN(C(=O)c2cccc(C)c2)CC1` (centres unmarked): 34.5%.
Next, `CC1CN(C(=O)COC(=O)c2ccc(S(=O)(=O)N(C)C)cc2)CC(C)O1` (centres unmarked): 25.6%.
Regarding `COc1ccccc1/C=C/C(=O)N1CCOCC1`, the “hERG current change (%, negative = inhibition) at 10uM” value came out at 6.65%.
Under `C=CCN(CC=C)C(=S)NC(=O)c1ccc([N+](=O)[O-])cc1` stands -0.526%; under `Cc1ccc(C(=O)N/C(=C\c2ccc(C(C)C)cc2)C(=O)NCCCN2CCOCC2)cc1`, -72.3%; under `CCCOc1ccc(NC(=O)CCC(=O)NC(C)c2ccccc2)cc1` (centres unmarked), 22.5%.
`Cc1nn(-c2ccccc2)c(Cl)c1C(=O)NC1CCCCC1`: the “hERG current change (%, negative = inhibition) at 10uM” value was -16.1%.
For `O=C(C1CCCC1)N1CCCC(Nc2ccccc2)C1` (centres unmarked), the “hERG current change (%, negative = inhibition) at 10uM” value was -20.4%.
Consider `CCOC(=O)N1CCC(NC(=O)CCC(=O)c2ccccc2)CC1`, for which the “hERG current change (%, negative = inhibition) at 10uM” value was determined as 10.8%.
Regarding `Cc1ccc(C)c(NC(=O)C(CC(=O)O)Cc2ccccc2)c1` (centres unmarked), the “hERG current change (%, negative = inhibition) at 10uM” value worked out at 9.71%.
As to `CC1CCCCC1NC(=O)COC(=O)c1cccn1C` (centres unmarked), the “hERG current change (%, negative = inhibition) at 10uM” value is 10.8%.
Under `C=C1CCC[C@]2(C)C[C@H]3OC(=O)C(CN[C@@H](C)c4ccccc4)[C@H]3CC12` (some centres unmarked) stands 12.6%.
Next, `O=C(NCc1ccco1)C1CCCN(c2nnc(-n3cccc3)s2)C1` (centres unmarked): -26.8%; `Cc1cccc(NC(=O)C(=O)C2C(=O)Nc3ccccc32)c1` (centres unmarked): 4.05%.
Next, `CC(=O)Nc1cccc(NC(=O)C2CC(=O)N(C3CCCCC3)C2)c1` (centres unmarked): 4.19%; `C=CCNc1nc(N(c2ccccc2)c2ccccc2)nc(-n2ccnc2)n1`: 7.1%.
Take `O=C(NCC1CCCN(Cc2ccc3c(c2)OCCO3)C1)c1ccc2c(c1)OCO2` (centres unmarked): the “hERG current change (%, negative = inhibition) at 10uM” value is -18.8%.
Next, `COc1ccc(O)c(-c2[nH]ncc2C(=O)c2cccc(C)c2)c1`: 10%; `O=[N+]([O-])c1ccc(O)c(N=Cc2sc3ccccc3c2O)c1`: 6.16%; `CCOc1c(Cl)cc(/C=N/O)cc1OC`: 4.13%.
Consider `COc1ccc(N(CC(=O)Nc2cccc(C(C)=O)c2)S(=O)(=O)c2ccc(NC(C)=O)cc2)cc1`, for which the “hERG current change (%, negative = inhibition) at 10uM” value is -2.7%.
For `CCOC(=O)CCC(NC(=O)c1ccccc1C(=O)NC(CCC(=O)OCC)C(=O)OCC)C(=O)OCC` (centres unmarked), the “hERG current change (%, negative = inhibition) at 10uM” value is given as -21.8%.
Under `CCCCCn1c(SCCc2ccccc2)nc2c1c(=O)[nH]c(=O)n2C` stands -17.4%; under `C/C(=N/OC(=O)c1c(-c2c(F)cccc2Cl)noc1C)c1cnccn1`, -9.96%; under `CC(=O)N(CC(=O)Nc1sc(C)c(C)c1C(N)=O)Cc1ccccc1`, -1.81%.
Next, `COc1ccc(N2CC(C(=O)OC(C)C(=O)c3ccccc3)CC2=O)cc1` (centres unmarked): 4.12%.
Next, `CS(=O)(=O)N(CC(=O)NCc1ccncc1)C1CCCCC1`: 1.91%; `Brc1ccccc1/C=N/Nc1ccccn1`: 28.1%.
Take `O=C(Cc1ccc(S(=O)(=O)N2CCOCC2)s1)N1CCN(S(=O)(=O)c2cccc([N+](=O)[O-])c2)CC1`: the “hERG current change (%, negative = inhibition) at 10uM” value is -27.1%.
Next, `O=P(C(c1ccc2c(c1)OCO2)N1CCOCC1)(N1CCOCC1)N1CCOCC1` (centres unmarked): 4.64%; `O=C(CSc1oc(-c2ccccc2)nc1S(=O)(=O)c1ccccc1)NCC1CCCO1` (centres unmarked): 2.1%; `Fc1ccc(C2=NN(c3ccccc3)C(c3ccco3)C2)cc1` (centres unmarked): 2.64%.
Next, `COc1ccc(N2CCN(C(=O)c3cc4c(-c5ccc(Cl)cc5)nn(C)c4s3)CC2)cc1`: -14.8%; `CC[C@@H](C)[C@H](NC(=O)Cc1c(C)c2c(cc(C)c3c(C)coc32)oc1=O)C(=O)O`: 12%; `Cc1ccc(S(=O)(=O)c2c(N)n(-c3ccccc3)c3nc4ccccc4nc23)cc1`: 7.23%.
Under `Cc1ccc(NC(=O)CN2C(=O)NC3(CCC(C)CC3)C2=O)c(Cl)c1` (centres unmarked) stands 11.1%; under `CCCCCCSc1ccc([C@H]2N[C@@](CC(C)C)(C(=O)OC)[C@H]3C(=O)N(C)C(=O)[C@@H]23)cc1OC.O=C(O)C(F)(F)F`, -43.9%.
Consider `CCOc1ccc2c(c1)-c1c(ssc1=S)C(C)(C)N2C(=O)c1ccco1`, for which the “hERG current change (%, negative = inhibition) at 10uM” value was found to be 18.3%.
Turning to `CCC(C(=O)Nc1ncccn1)(C(F)(F)F)C(F)(F)F`, the “hERG current change (%, negative = inhibition) at 10uM” value stood at 4.41%.
Regarding `COc1ccc(NC(=O)N2CCCCC2)cc1`, the “hERG current change (%, negative = inhibition) at 10uM” value was -9.7%.
